Reference: PubChem BioAssay AID651820 (National Center for Advancing Translational Sciences (NCATS), 2012)
The campaign covered roughly 340,000 compounds. About 12,000 (3.5%) were called active. The inconclusive results got no clear call from the source; some entries with a clear call stand among them for comparison. Calls come from the whole dose curve; as a rule, active = well fitted inhibition curve with a large enough effect; inconclusive = small, poorly fitted or top-dose-only effect, or another doubt; inactive = no such curve, though single readings can be large or run the other way. Potencies of inconclusive entries are left out as doubtful fits.

test: qHTS Assay for Inhibitors of Hepatitis C Virus (HCV); settings: Huh7.5.1 HCVcc-Cre (HCVcc is cell-culture hepatitis C virus) infection, luciferase reporter, 44 h; series mostly up to 41.8 µM
How it was run: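 Antiviral activity was scored by luciferase reporter output from cells infected with HCVcc-Cre (~0.5 moi) in presence of compound, 44 h infection period, cells seeded 1,000/well 4 h prior.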
Potency is the fitted concentration of half-maximal effect; tags give direction and shape of the fitted curve.

| SMILES | Potency |
| --- | --- |
| O=C(NC1CCN(Cc2ccccc2)CC1)C1CCN(S(=O)(=O)c2cccc3cccnc23)CC1 | inconclusive [inhibitor, full curve, poor fit] |
| COCCCNc1oc(/C=C/c2ccccc2)nc1C#N | inactive |
| CSc1nc2ccc(NS(=O)(=O)c3ccc4c(c3)OCCO4)cc2s1 | inconclusive [inhibitor, partial curve] |
| COc1cc(O)c(C(=O)/C=C/c2ccccc2)c(OC)c1 | inconclusive [inhibitor, single point] |
| COc1ccc(-c2csc(NC(=O)COC(=O)C3=COCCO3)n2)cc1 | inactive |
| Cc1cc(/C=N/n2cnnc2)c(C)n1-c1ccc2ncccc2c1 | inconclusive [inhibitor, partial curve] |
| Cc1ccc(OCCCCN2CCCCC2)c(Br)c1 | inconclusive [inhibitor, partial curve] |
| COc1ccc(OC)c(NC(=O)c2ccc(-c3csc(C)n3)cc2)c1 | inconclusive [inhibitor, single point] |
| CCOc1ccc(NC(=O)CN(C)C(=O)c2cccnc2SC)cc1OCC | inactive |
| O=[N+]([O-])c1cc(C2Nc3cccc4cccc(c34)N2)ccc1Cl | inconclusive [inhibitor, partial curve] |
| CCC(=O)Nc1ccc(C(=O)OCc2ccccc2)cc1 | inactive |
| COc1ccc(C(CNC(=O)c2cccc(S(=O)(=O)Nc3ccccc3Cl)c2)N2CCOCC2)cc1 (stereo unspecified) | inconclusive [inhibitor, single point] |
| Cc1cc2c(sc3ccccc32)c(C)n1 | inconclusive [inhibitor, partial curve] |
| COc1ccc(Cc2nc3ccc(C(=O)N4CCCC4)cc3o2)cc1OC | inconclusive [inhibitor, partial curve] |
| CN(C)CCCNc1nc(-c2ccccc2)nc2ccccc12 | inactive |
| O=C(Nc1ccccc1)Nc1ccc(Cl)c([N+](=O)[O-])c1 | active: 12.6 µM |
| COc1cc(OC)c(NC(=S)Nc2cc(Cl)cc(Cl)c2)cc1Cl | inconclusive [inhibitor, partial curve] |
| CCC1(c2ccc(F)cc2)NC(=O)N(CC(=O)NC2CCCCCC2)C1=O (stereo unspecified) | inconclusive [inhibitor, single point] |
| Cc1ccc(CCC(=O)Nc2ccccc2F)s1 | inactive |
| COc1cc(C(=S)N2CCN(C(c3ccccc3)c3ccccc3)CC2)cc(OC)c1O | active: 11.2 µM |
| COc1ccc2[nH]cc(CCNC(=O)c3ccco3)c2c1 | inconclusive [inhibitor, partial curve] |
